Source: the DeepSol protein solubility set

Assay: soluble on expression in E. coli; label from the status in PepcDB or PDB records

Row | Sequence | soluble on expression in E. coli
1 | ASEKRPFMCAYPGCNKRYFKLSHLQMHSRKHTGEKPYQCDFKDCERRFSRSDQLKRHQRRHTGVKPFQCKTCQRKFSRSDHLKTHTRTHTGEKPFSCRWPSCQKKFARSDELVRHHNMH | soluble
2 | MSLKGVLFDLDGVITDTAEFHYHAWKKLGNEIGISIDRVFNEQLKGVSREDSLQLLLKYGKKEGTFSSEEFAQLAQRKNDYYLEMIQAITPEDVYPGILSLLTELREANIKIALASASKNGPFLLEKMQLTPLFDAIANPADVQAGKPAPDIFILAAKEIDLTPAECLGIEDAKAGIQAILASGAQPVGVGRKEELGEGLPIVPETSALTFDYLKKVWLDHEGHHHHHH | soluble
3 | MVAITAAASRLGTSAFSDAPPVELRANWSEEDLETVIRAVYRQVLGNDYVMASERLVSAESLLRNGKITVREFVRAVAKSELYKEKFLYGNFQTRVIELNYKHLLGRAPYDESEVIFHLDLYENEGFDADIDSYIDSPEYTNSFGDWVVPYYRGFNTQPGLEHHHHHH | soluble
4 | PFGNTHNKYKLNYKSEEEYPDLSKHNNHMAKVLTPDLYKKLRDKETPSGFTLDDVIQTGVDNPGHPFIMTVGCVAGDEESYTVFKDLFDPIIQDRHGGFKPTDKHKTDLNHENLKGGDDLDPHYVLSSRVRTGKSIKGYTLPPHCSRGERRAVEKLSVEALNSLTGEFKGKYYPLKSMTEQEQQQLIDDHFLFDKPVSPLLLASGMARDWPDARGIWHNDNKSFLVWVNEEDHLRVISMEKGGNMKEVFRRFCVGLQKIEEIFKKAGHPFMWNEHLGYVLTCPSNLGTGLRGGVHVKLAHLSKHPKFEEILTRLRLQKRGTGGVDTAAVGSVFDISNADRLGSSEVEQVQLVVDGVKLMVEMEKKLEKGQSIDDMIPAQK | soluble
